Source: publication PMC7188849
These are yes or no findings as the source states them, for the method shown. For part of these data: In cells and extracts the contact can be indirect. Some entries that bind do so weakly or less than the wild type. For part of these data: Tags and fused reporters may be left off the sequences shown. Each block holds one molecule with its values, some of them ahead of it.

Sequences of proteins named here, by UniProt entry; tags and fusion partners are left off.
UniProt P38936: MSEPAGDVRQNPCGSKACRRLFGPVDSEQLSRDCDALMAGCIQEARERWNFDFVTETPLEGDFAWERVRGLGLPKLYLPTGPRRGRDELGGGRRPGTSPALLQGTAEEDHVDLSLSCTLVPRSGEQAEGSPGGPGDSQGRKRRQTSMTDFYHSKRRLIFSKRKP
UniProt Q13547: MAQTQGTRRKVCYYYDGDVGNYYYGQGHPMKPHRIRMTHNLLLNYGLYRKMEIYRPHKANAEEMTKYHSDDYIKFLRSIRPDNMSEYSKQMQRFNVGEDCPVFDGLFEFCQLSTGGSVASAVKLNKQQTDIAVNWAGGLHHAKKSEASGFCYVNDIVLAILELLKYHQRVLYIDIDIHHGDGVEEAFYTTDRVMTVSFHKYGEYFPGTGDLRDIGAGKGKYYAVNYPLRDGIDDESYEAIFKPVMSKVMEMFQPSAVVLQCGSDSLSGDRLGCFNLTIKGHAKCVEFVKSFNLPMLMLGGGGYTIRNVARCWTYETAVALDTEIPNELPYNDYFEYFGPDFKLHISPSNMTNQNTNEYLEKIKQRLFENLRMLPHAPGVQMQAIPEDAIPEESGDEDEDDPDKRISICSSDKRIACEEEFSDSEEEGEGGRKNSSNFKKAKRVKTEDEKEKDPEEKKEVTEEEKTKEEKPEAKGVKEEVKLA
UniProt O15379: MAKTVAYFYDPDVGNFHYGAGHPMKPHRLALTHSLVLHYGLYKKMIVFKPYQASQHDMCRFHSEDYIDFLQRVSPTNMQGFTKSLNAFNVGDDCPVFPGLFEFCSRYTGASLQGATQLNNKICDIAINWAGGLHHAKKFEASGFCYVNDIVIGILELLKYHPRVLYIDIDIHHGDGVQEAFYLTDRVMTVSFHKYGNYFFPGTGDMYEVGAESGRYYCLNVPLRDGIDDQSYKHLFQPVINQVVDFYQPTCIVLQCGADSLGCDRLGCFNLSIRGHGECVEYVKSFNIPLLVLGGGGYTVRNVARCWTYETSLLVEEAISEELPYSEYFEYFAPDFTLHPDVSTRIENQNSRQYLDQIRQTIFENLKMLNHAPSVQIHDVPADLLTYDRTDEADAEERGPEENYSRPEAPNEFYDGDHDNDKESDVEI

Key:
HA-tagged FHL2 (human) [1] = target: T1, HA-tagged FHL2 (human) (UniProt Q14192); experiment: co-IP; competition: HA-IP of HA-FHL2 from transfected 293 T cells expressing FLAG-HDAC3 plus increasing FLAG-p57 plasmid (1/1, 2/1, 3/1 to HDAC3), or FLAG-HDAC1 with a threefold excess of p57 plasmid; blots probed with FLAG and HA antibodies
T1 sequence: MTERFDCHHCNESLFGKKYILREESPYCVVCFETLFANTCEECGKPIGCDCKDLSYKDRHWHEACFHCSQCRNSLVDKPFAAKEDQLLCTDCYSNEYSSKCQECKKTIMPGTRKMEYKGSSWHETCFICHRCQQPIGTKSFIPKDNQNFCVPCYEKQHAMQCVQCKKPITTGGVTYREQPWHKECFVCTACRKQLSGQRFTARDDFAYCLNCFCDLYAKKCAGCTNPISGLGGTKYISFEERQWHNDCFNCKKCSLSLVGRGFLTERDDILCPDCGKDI

HA-tagged FHL2 (human) [2] = target: T1, HA-tagged FHL2 (human); experiment: co-IP; HA-IP of HA-FHL2 from 293 cells cotransfected with FLAG-HDAC1; coprecipitated FLAG-HDAC1 detected with anti-FLAG
[3] = target: T2, p57Kip2 fused to the DNA binding domain of Gal4 (pAS2-1-p57) (human) (UniProt P49918); experiment: two-hybrid; library screen: bait Gal4 DBD-p57 stably integrated in S. cerevisiae PJ69-4A, prey Human HeLa … cDNA library in pACT2; clones verified by retransformation and sequenced
T2 sequence: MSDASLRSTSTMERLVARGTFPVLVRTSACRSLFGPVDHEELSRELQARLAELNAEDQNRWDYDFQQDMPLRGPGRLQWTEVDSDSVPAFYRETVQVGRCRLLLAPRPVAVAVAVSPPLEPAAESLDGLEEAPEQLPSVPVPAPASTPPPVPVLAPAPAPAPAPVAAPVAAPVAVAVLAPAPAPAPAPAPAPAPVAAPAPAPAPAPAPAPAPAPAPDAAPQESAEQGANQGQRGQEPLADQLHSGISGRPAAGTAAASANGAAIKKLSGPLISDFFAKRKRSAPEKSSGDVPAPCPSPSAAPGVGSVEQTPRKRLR

[4] = target: T2, p57Kip2 fused to the DNA binding domain of Gal4 (pAS2-1-p57) (human); experiment: two-hybrid; directed test: pACT2-FHL2 together with pAS2-1 bait plasmids in PJ69-4A; growth on -Trp/-Leu/-Ade plates
[5] = target: p21Cip1/Waf1 fused to the DNA binding domain of Gal4 (pAS2-1-p21) (human) (UniProt P38936); experiment: as above
[6] = target: T3, HA-tagged p57 wildtype (human) (UniProt P49918); experiment: co-IP; HA-IP of HA-p57 from lysates of transfected 293 T cells, 4 hours at 4 °C, IP-buffer; bound FLAG-FHL2 proteins detected with anti-FLAG, endogenous CDKs with anti-PSTAIR
T3 sequence: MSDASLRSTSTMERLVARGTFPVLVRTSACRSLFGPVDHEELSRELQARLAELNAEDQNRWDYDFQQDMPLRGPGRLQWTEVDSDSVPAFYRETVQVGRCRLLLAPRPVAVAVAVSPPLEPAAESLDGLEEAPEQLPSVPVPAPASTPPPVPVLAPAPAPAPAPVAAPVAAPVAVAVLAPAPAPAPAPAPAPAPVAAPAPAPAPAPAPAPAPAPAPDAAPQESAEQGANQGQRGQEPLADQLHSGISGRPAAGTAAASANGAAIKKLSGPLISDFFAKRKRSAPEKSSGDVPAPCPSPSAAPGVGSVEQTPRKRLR

[7] = target: T4, endogenous p57Kip2 (human (endogenous in HeLa and HRT-18)) (UniProt P49918); experiment: co-IP; IP of endogenous p57 (rabbit polyclonal; rabbit IgG control IP) from the nuclear fraction of HRT-18 cells after digitonin fractionation; FHL2 detected by immunoblot
T4 sequence: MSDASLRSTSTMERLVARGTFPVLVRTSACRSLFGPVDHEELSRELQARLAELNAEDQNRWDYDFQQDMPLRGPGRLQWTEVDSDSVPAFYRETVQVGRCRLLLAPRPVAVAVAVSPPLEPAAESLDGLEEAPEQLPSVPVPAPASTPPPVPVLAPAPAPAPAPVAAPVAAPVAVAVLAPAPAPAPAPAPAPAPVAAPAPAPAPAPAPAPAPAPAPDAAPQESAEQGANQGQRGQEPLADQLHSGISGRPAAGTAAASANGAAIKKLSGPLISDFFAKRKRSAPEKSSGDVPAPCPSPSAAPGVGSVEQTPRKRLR

[8] = target: T4, endogenous p57Kip2 (human (endogenous in HeLa and HRT-18)); experiment: co-IP; IP of endogenous p57 with rabbit polyclonal p57 antibody from HeLa and HRT-18 cellular extracts, over night at 4 °C, IP-buffer (50 mM Tris pH 7.5, 150 mM NaCl, 0.5% NP-40); FHL2 detected by Western blot
[9] = target: T5, FLAG-tagged full-length FHL2 (human) (UniProt Q14192); experiment: co-IP; FLAG-IP of FLAG-FHL2 (mouse anti-FLAG) from lysates of transfected 293 T cells; coprecipitated HA-p57 proteins detected with anti-HA
T5 sequence: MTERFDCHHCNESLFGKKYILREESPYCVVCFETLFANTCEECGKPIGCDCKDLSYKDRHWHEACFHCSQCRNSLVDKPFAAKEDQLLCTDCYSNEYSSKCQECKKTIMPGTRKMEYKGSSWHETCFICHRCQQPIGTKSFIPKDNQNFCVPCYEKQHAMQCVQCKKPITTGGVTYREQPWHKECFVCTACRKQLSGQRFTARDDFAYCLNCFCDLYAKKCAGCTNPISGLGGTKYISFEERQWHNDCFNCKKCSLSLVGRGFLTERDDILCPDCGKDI

HA-tagged FHL2 (human) [10] = target: T1, HA-tagged FHL2 (human); experiment: co-IP; competition: HA-IP of HA-FHL2 from transfected 293 T cells expressing FLAG-HDAC3 plus increasing FLAG-p57 plasmid (1/1, 2/1, 3/1 to HDAC3), or FLAG-HDAC1 with a threefold excess of p57 plasmid; blots probed with FLAG and HA antibodies; remark: listed apart in the source

binding [3]: binds
binding [4]: binds
binding [5]: binds weakly
B1: four-and-a-half LIM-only protein 2 (FHL2) fused to the Gal4 transactivation domain (pACT2-FHL2) (protein, UniProt Q14192 1-279)
chain: MTERFDCHHCNESLFGKKYILREESPYCVVCFETLFANTCEECGKPIGCDCKDLSYKDRHWHEACFHCSQCRNSLVDKPFAAKEDQLLCTDCYSNEYSSKCQECKKTIMPGTRKMEYKGSSWHETCFICHRCQQPIGTKSFIPKDNQNFCVPCYEKQHAMQCVQCKKPITTGGVTYREQPWHKECFVCTACRKQLSGQRFTARDDFAYCLNCFCDLYAKKCAGCTNPISGLGGTKYISFEERQWHNDCFNCKKCSLSLVGRGFLTERDDILCPDCGKDI

binding [7]: binds
binding [8]: binds
B3: endogenous FHL2 (protein, UniProt Q14192 1-279)
chain: MTERFDCHHCNESLFGKKYILREESPYCVVCFETLFANTCEECGKPIGCDCKDLSYKDRHWHEACFHCSQCRNSLVDKPFAAKEDQLLCTDCYSNEYSSKCQECKKTIMPGTRKMEYKGSSWHETCFICHRCQQPIGTKSFIPKDNQNFCVPCYEKQHAMQCVQCKKPITTGGVTYREQPWHKECFVCTACRKQLSGQRFTARDDFAYCLNCFCDLYAKKCAGCTNPISGLGGTKYISFEERQWHNDCFNCKKCSLSLVGRGFLTERDDILCPDCGKDI

binding [9]: no binding
B4: HA-p57 carboxyterminal truncation mutant (p57-Ct) (domain or fragment, UniProt P49918 125-316)
chain: SLDGLEEAPEQLPSVPVPAPASTPPPVPVLAPAPAPAPAPVAAPVAAPVAVAVLAPAPAPAPAPAPAPAPVAAPAPAPAPAPAPAPAPAPAPDAAPQESAEQGANQGQRGQEPLADQLHSGISGRPAAGTAAASANGAAIKKLSGPLISDFFAKRKRSAPEKSSGDVPAPCPSPSAAPGVGSVEQTPRKRLR

binding [9]: binds
B5: HA-p57 amino terminal truncation mutant (p57-Nt) (domain or fragment, UniProt P49918 1-125)
chain: MSDASLRSTSTMERLVARGTFPVLVRTSACRSLFGPVDHEELSRELQARLAELNAEDQNRWDYDFQQDMPLRGPGRLQWTEVDSDSVPAFYRETVQVGRCRLLLAPRPVAVAVAVSPPLEPAAES

Continued, molecule first:

Molecule: FLAG-tagged histone deacetylase 1 (HDAC1) (from UniProt Q13547 1-482) (enzyme)
binding (HA-tagged FHL2 (human) [1]): binds
binding (HA-tagged FHL2 (human) [2]): binds

Molecule: FLAG-tagged HDAC3 (from UniProt O15379 1-428) (enzyme)
binding (HA-tagged FHL2 (human) [1]): binds

B2: FLAG-tagged full-length FHL2 (protein, UniProt Q14192 1-279)
chain: MTERFDCHHCNESLFGKKYILREESPYCVVCFETLFANTCEECGKPIGCDCKDLSYKDRHWHEACFHCSQCRNSLVDKPFAAKEDQLLCTDCYSNEYSSKCQECKKTIMPGTRKMEYKGSSWHETCFICHRCQQPIGTKSFIPKDNQNFCVPCYEKQHAMQCVQCKKPITTGGVTYREQPWHKECFVCTACRKQLSGQRFTARDDFAYCLNCFCDLYAKKCAGCTNPISGLGGTKYISFEERQWHNDCFNCKKCSLSLVGRGFLTERDDILCPDCGKDI
binding [6]: binds

B6: FLAG-tagged p57 (protein, UniProt P49918 1-316)
chain: MSDASLRSTSTMERLVARGTFPVLVRTSACRSLFGPVDHEELSRELQARLAELNAEDQNRWDYDFQQDMPLRGPGRLQWTEVDSDSVPAFYRETVQVGRCRLLLAPRPVAVAVAVSPPLEPAAESLDGLEEAPEQLPSVPVPAPASTPPPVPVLAPAPAPAPAPVAAPVAAPVAVAVLAPAPAPAPAPAPAPAPVAAPAPAPAPAPAPAPAPAPAPDAAPQESAEQGANQGQRGQEPLADQLHSGISGRPAAGTAAASANGAAIKKLSGPLISDFFAKRKRSAPEKSSGDVPAPCPSPSAAPGVGSVEQTPRKRLR
binding (HA-tagged FHL2 (human) [10]): binds
